# Test results from PubChem BioAssay AID504832 (National Center for Advancing Translational Sciences (NCATS), 2011).
# Among all 310,000 compounds or so, about 18,000 (5.8%) were called active. Inconclusive means that the source gave no clear call. Such entries were picked first, then a sample of the others. Calls follow the shape of the dose curve; as a rule, active = well fitted inhibition curve with a large enough effect; inconclusive = small, poorly fitted or top-dose-only effect, or another doubt; inactive = no such curve, though single readings can be large or run the other way. No potency is given beside an inconclusive call; the fits are too rough.
# Experiment: Primary qHTS for delayed death inhibitors of the malarial parasite plastid, 48 hour incubation
# Settings: P. falciparum luciferase growth in erythrocytes; series mostly up to 28.7 µM; activity change, negative = inhibition: at the top concentration
# How it was run: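 Luciferase-expressing parasites in RBCs, 2% Hct / 0.1% parasitemia final; RPMI 1640 + 0.5% Albumax; 37 C, 5% CO2, one generation; luminescence read-out, lower signal = inhibition.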
# % is scaled to controls: 0 for no effect and ±100 for the full control effect; potency is read from the fitted curve at half-maximal effect; tags tell the direction and shape of the fitted curve.
Structure (SMILES),Potency,"activity change, negative = inhibition"
CC1CCN(Cc2cc(=O)oc3cc(O)c(Cl)cc23)CC1,"inconclusive [inhibitor, single point]",
CCc1cccc2c(C(=O)CN3C(=O)NC4(CCCCCC4)C3=O)c[nH]c12,"inconclusive [inhibitor, single point]",
OC1CCCN(Cc2cn(Cc3ccccc3)nc2-c2cc3ccccc3o2)C1 (stereo not drawn),"inconclusive [inhibitor, single point]",
Nc1c(-c2ccc(Cl)cc2)cnn1-c1cccc(C(F)(F)F)c1,,inactive: 94.4%
CCOCCCn1c(C)nc2c[n+](CC(=O)c3ccc4ccccc4c3)cc(Br)c21,"inconclusive [inhibitor, full curve]",
CCOc1ccc(OCC)c(NC(=O)CN2CCN(CC)CC2)c1,,inactive: -25.8%
Cc1ccc(S(=O)(=O)c2c(N)n(/N=C/c3ccco3)c3nc4ccccc4nc23)cc1C,active: 2.08 µM,
O=S(=O)(Nc1ncnc2c1oc1ccccc12)c1ccc(Cl)s1,,inactive: 50.6%
O=C(O)c1ccc(-c2nc(-c3ccc(Cl)cc3)cs2)cc1,,inactive: 210%
CN(C(=O)CSc1nc2ccccc2s1)c1c(N)n(Cc2ccccc2)c(=O)[nH]c1=O,"inconclusive [inhibitor, partial curve, poor fit]",
COc1ccc(NC(=O)CN2CCC(NC(=O)c3ccco3)CC2)c([N+](=O)[O-])c1,"inconclusive [inhibitor, single point]",
CC1(C)C(=O)Nc2ccccc2N1C(=O)COC(=O)COc1ccc(C#N)cc1,,inactive: 35.6%
CCOc1cc2[nH]c(=S)n(CCC(=O)N3CCc4ccccc4C3)c(=O)c2cc1OCC,"inconclusive [inhibitor, single point]",
Cc1c(Cl)cnn1CC(=O)NC1C(=O)N2C(C(=O)O)=C(CSc3nnnn3C)CSC12 (stereo not drawn),,inactive: 13.9%
O=C(NNC1=Nc2ccccc2SC1)c1ccc(F)cc1,active: 10.4 µM,
CCOc1ccccc1N1CCN(C(=O)CSc2ccc3c(c2)OCCO3)CC1,"inconclusive [inhibitor, single point]",
Cc1nnc(SCC2=C(C(=O)O)N3C(=O)C(NC(=O)Cn4ncc(Cl)c4C)C3SC2)s1 (stereo not drawn),"inconclusive [inhibitor, full curve]",
CCN1C(=O)[C@@H]2[C@@H](c3ccc(-c4ccc(OC)cc4)c(OC)c3)N3CCC[C@@]3(C(=O)OC)[C@@H]2C1=O,"inconclusive [inhibitor, single point]",
O=C(CN(C(=O)Cn1nnc(-c2ccc(F)cc2)n1)c1ccc(F)cc1)NC1CCCC1,"inconclusive [inhibitor, single point]",
COc1ccc(-c2nn(CCC#N)cc2C=C(C#N)C#N)cc1,,inactive: -14.9%
CN(CCCC(=O)NCc1ccc2c(c1)OCO2)S(=O)(=O)c1ccc([N+](=O)[O-])cc1,"inconclusive [inhibitor, single point]",
Cn1nc([N+](=O)[O-])nc1N1CCOCC1,,inactive: 8.5%
CCOC(=O)N1CCC(N2C(=O)c3ccc(C(=O)NCc4ccc(F)cc4)cc3C2=O)CC1,,inactive: 46.1%

Structure (SMILES),Potency,"activity change, negative = inhibition"
Cc1cc(C)nc(Sc2nc(Nc3ccccc3)nc(Sc3nc(C)cc(C)n3)n2)n1,"inconclusive [inhibitor, single point]",
Cc1cccc(NCc2ccccc2O)c1C,"inconclusive [inhibitor, single point]",
COC(=O)c1cc(O)c(OCc2ccccc2)c(O)c1,,inactive: -21.1%
CC(C)CCNC(=O)c1c(CSc2ccccc2)noc1C(=O)NCc1ccccc1,"inconclusive [inhibitor, partial curve]",
COc1ccc(-c2cc(C(F)(F)F)n3nc(C(=O)N4CCN(C(=O)c5ccco5)CC4)cc3n2)cc1,"inconclusive [inhibitor, partial curve]",
CCOc1ccc(S(=O)(=O)N2CCOCC2)cc1NC(=O)CN1C(=O)NC(C)(c2ccccc2)C1=O (stereo not drawn),"inconclusive [inhibitor, partial curve]",
CC1(C)CC(N2CCCC2)=CC(=[N+]2CCCCCC2)C1,"inconclusive [inhibitor, full curve]",
COc1cccc(CNC(=O)c2cccnc2Sc2ccccc2)c1,"inconclusive [inhibitor, single point]",
O=C1N=C(N2CCCCC2)S/C1=C\c1ccc(Cl)cc1,"inconclusive [inhibitor, partial curve, poor fit]",
CCCC(=O)Oc1ccc(-c2nccc(C(OC)OC)n2)cc1,,inactive: 85.9%
C=CCn1c(SCc2c(C)noc2C)nc2sc3c(c2c1=O)CCCC3,active: 13.1 µM,
CN(CCC1CCOCC1)C(=O)CC1C(=O)NCCN1Cc1ccccc1F (stereo not drawn),,inactive: 16.4%
CCCc1cc(=O)oc2cc(OCC(=O)N3CCC(C(=O)O)(c4ccccc4)CC3)ccc12,"inconclusive [inhibitor, partial curve, poor fit]",
COC(=O)c1[nH]c2c(c1C)C(=O)CCC2,,inactive: 41.5%
CCCc1ccc(C(=O)[C@@H]2[C@@H](C(C)=O)N3c4ccc(F)cc4C=C[C@@H]3[C@@]23C(=O)Nc2ccccc23)cc1,"inconclusive [inhibitor, single point]",
CC(Oc1ccc(Cl)cc1)C(=O)NCC1CCCO1 (stereo not drawn),,inactive: 13.7%
COc1cccc(NC(=O)CN(C)C(=O)c2csc3c2CCCC3)c1,"inconclusive [inhibitor, single point]",
CN(Cc1ccccc1)C(=O)COC(=O)c1ccc2ccccc2n1,"inconclusive [inhibitor, full curve]",
O=S(=O)(c1cccc(C(F)(F)F)c1)N(CCCN1CCOCC1)Cc1cccs1,"inconclusive [inhibitor, single point]",
Cc1nc(NCCc2cnc[nH]2)c2oc3ccccc3c2n1,"inconclusive [inhibitor, single point]",
CCC(Oc1ccccc1)C(=O)N(CC)CC(=O)NCc1ccc(F)cc1 (stereo not drawn),"inconclusive [inhibitor, single point]",
Cn1c(=O)c2c(nc(NCCc3ccccc3)n2Cc2ccccc2)n(C)c1=O,"inconclusive [inhibitor, single point]",
C=CCN(C(=O)CCC(=O)Nc1cc(C)on1)C(C(=O)NC1CCCC1)c1ccc(CC)cc1 (stereo not drawn),"inconclusive [inhibitor, single point]",

Structure (SMILES),Potency,"activity change, negative = inhibition"
COc1ccc(S(=O)(=O)N2CCCC2C(=O)NCc2ccccc2Cl)cc1 (stereo not drawn),,inactive: -10.1%
CCCCn1nnc(NC(=O)Cc2ccc(Cl)cc2)n1,,inactive: 12.1%
O=[N+]([O-])c1cc(Br)c(O)c(C=Nc2ccc(N3CCOCC3)cc2)c1,"inconclusive [inhibitor, partial curve, poor fit]",
CCOC(=O)Cc1c(C)nc2c(-c3ccc(Cl)cc3)c(C)[nH]n2c1=O,,inactive: 54.5%
O=C(COc1ncnc2ccc(Br)cc12)Nc1ccc(N2CCOCC2)cc1,,inactive: 3.53%
O=C(Nc1cc(C(F)(F)F)ccc1N1CCOCC1)c1ccc(Cl)nc1,active: 9.28 µM,
COc1ccccc1Nc1nnc(SCC(=O)NC(=O)Nc2ccc3c(c2)OCCO3)s1,,inactive: -0.917%
O=C(Nc1ccccc1Cl)c1cc(S(=O)(=O)N2CCCCC2)ccc1N1CCOCC1,active: 9.28 µM,
CCOC(=O)Cc1csc(NS(=O)(=O)c2ccc(Cl)cc2)n1,"inconclusive [inhibitor, partial curve, poor fit]",
C[n+]1c(-c2ccccc2)cc(CCCCc2cc(-c3ccccc3)[n+](C)c(-c3ccccc3)c2)cc1-c1ccccc1,active: 13.1 µM,
C=CC(COCc1ccccc1)N(Cc1ccc(OC)cc1)S(=O)(=O)c1ccccc1Br (stereo not drawn),"inconclusive [inhibitor, single point]",
Cn1cnnc1Sc1cc(N2CCN(S(=O)(=O)c3ccccc3)CC2)ccc1[N+](=O)[O-],"inconclusive [inhibitor, partial curve, poor fit]",
CCCS(=O)(=O)NCCc1cc2cc(C)c(C)cc2[nH]c1=O,"inconclusive [inhibitor, partial curve, poor fit]",
O=C(c1ccc(-c2nc3ccccc3s2)o1)N1CCN(c2ccccc2O)CC1,"inconclusive [inhibitor, single point]",
CCN(CC(=O)NCc1ccc(Cl)cc1)C(=O)CCC(=O)c1ccc(F)cc1,"inconclusive [inhibitor, single point]",
CC1(C)CC(=O)c2cc(C(=O)N3CCCC(C)(C)C3)c(=O)n(-c3ccccc3)c2C1,"inconclusive [inhibitor, single point]",
Cc1cccc(NC(=O)CN2CCN(C(=O)c3cccc(-n4cnnn4)c3)CC2)c1C,"inconclusive [inhibitor, partial curve]",
CCOc1ccc(CCNC(=O)COC(=O)COc2ccc(Cl)cc2)cc1OCC,"inconclusive [inhibitor, single point]",
N#Cc1c[nH]n2c(=O)cc(Cc3ccccc3)nc12,,inactive: -9.1%
Cc1nn(Cc2ccccc2)c(Cl)c1C(=O)NCc1ccc(C)n1C,"inconclusive [inhibitor, single point]",
COc1ccccc1NC(=O)Cc1nnc(SCC(=O)c2ccc(F)cc2)n1C,"inconclusive [inhibitor, full curve, poor fit]",
CCCC(C(=O)Nc1cccc(S(=O)(=O)N2CCCC2)c1)c1ccccc1 (stereo not drawn),"inconclusive [inhibitor, partial curve, poor fit]",
